Patent US20200392203A1 (YEDA RESEARCH AND DEVELOPMENT, published 2020)

How the values were obtained:
Assay in all cases: cell-based or functional assay
[1] = molecular target: T1, native spike complex (glycoprotein complex, GPC) of Machupo virus (MACV) (Machupo virus (MACV), UniProt Q6IUF7 2-496)
T1 sequence: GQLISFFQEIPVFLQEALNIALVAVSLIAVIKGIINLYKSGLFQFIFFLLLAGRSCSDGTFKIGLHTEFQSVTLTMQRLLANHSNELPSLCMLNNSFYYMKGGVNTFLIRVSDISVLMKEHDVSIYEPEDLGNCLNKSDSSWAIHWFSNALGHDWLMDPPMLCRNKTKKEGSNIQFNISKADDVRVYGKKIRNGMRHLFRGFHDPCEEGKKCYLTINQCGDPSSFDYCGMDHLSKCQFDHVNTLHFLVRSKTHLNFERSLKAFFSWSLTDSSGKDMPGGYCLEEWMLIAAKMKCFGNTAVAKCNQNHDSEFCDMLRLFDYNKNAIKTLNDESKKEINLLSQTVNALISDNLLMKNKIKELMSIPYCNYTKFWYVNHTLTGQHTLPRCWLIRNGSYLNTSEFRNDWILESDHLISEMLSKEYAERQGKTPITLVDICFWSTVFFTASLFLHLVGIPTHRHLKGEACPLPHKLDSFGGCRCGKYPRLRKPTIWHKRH

[2] = molecular target: T2, native spike complex (glycoprotein complex, GPC) of Guanarito virus (GTOV) (Guanarito virus (GTOV), UniProt Q8AYW1 2-479)
T2 sequence: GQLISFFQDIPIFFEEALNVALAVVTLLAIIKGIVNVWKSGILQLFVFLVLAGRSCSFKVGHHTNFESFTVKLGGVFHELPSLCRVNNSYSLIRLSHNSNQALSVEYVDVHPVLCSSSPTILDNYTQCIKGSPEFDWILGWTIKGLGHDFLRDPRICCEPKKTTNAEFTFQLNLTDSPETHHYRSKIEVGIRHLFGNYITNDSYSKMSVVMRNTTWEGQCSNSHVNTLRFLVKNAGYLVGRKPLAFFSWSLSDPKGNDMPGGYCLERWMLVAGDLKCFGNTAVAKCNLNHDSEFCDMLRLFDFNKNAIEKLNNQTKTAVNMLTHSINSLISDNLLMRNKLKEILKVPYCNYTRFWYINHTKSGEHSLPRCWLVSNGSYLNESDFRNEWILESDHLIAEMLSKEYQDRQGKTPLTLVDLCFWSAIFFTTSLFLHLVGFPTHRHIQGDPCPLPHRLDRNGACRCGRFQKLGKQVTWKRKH

[3] = molecular target: T1, native spike complex (glycoprotein …); remark: listed apart in the source

B1: Arenacept (sAD fused at its C'-terminus to an Fc portion of IgG1) (Fc fusion)
chain: GSKIQVKCSAPNSVTITNASGGLYLVEYPEGYVAYSKATEVTGKLVHANFGTKKDFEDLDYAVNGSIVIVRAGKITIAEKVANAQSFNAIGVLIYKDRTKYPISRADEPLQGHSGLPSIPVQTISREAAEKLFQNMERDCPRSWNTDSSCKLELLQNRNVKLTVNNCLKEGTENLYFQGS[here human IgG1 Fc without letters]
[1]
  IC50 values (µg/ml), neutralization of pseudotyped virus: 0.5 µg/mL
[2]
  IC50 values (µg/ml), neutralization of pseudotyped virus: 1.8 µg/mL
[3]
  pseudovirus neutralisation, IC50 (read off the curve): ~4 nM
